Results on 86 compounds are retold here after PMC4336329 (PLoS ONE, 2015).

The whole screen tested about 310,000 compounds, of which about 14,000 (4.5%) showed an effect of 50% or more. The effect is printed as a negative number. This is one part of the list.
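Further: peak tail current of the secondary pulse compared with the same well before compound.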

human ether-à-go-go-related gene (hERG) potassium channel, sequence (Q12809 whole entry, looked up): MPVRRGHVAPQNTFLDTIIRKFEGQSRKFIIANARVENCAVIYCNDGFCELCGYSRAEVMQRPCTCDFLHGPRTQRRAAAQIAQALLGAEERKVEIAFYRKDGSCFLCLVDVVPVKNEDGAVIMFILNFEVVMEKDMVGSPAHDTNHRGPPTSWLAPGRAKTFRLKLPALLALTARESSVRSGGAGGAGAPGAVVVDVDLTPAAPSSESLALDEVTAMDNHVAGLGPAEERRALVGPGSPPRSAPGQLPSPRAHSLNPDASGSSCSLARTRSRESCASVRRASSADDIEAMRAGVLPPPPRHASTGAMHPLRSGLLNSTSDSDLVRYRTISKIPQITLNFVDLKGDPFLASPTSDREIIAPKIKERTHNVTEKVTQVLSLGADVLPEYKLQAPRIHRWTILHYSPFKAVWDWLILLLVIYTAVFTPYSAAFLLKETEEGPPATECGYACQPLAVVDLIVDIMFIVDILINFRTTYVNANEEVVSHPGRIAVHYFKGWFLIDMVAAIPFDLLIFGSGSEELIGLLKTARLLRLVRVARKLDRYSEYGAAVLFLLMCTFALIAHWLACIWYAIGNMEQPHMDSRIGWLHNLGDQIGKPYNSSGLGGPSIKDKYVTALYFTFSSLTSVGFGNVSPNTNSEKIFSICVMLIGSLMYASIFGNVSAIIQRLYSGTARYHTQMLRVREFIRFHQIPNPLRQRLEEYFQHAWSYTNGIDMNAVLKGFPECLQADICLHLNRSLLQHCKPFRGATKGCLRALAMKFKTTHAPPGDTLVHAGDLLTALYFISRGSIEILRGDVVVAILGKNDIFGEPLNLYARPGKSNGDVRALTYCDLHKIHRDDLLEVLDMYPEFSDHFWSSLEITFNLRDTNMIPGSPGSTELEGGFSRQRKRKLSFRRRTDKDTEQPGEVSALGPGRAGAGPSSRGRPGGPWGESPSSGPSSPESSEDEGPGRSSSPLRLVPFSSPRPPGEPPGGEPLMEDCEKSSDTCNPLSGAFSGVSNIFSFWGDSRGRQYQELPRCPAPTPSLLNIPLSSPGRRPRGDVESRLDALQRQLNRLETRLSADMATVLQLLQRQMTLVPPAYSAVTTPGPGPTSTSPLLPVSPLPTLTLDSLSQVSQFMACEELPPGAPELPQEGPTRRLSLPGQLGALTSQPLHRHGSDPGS

This assay has as its target human ether-à-go-go-related gene (hERG) potassium channel (human, UniProt Q12809). Nature of the assay: primary screen, population patch clamp on CHO cells stably expressing hERG.
`O=C(Nc1ccc(N2CCCC2=O)cc1)c1cncc(Br)c1`: the “hERG current change (%, negative = inhibition) at 10uM” value amounted to 22.5%.
For `COc1cc2c(cc1OC)C(c1cc3ccccc3oc1=O)=NC(C)(C)C2`, the “hERG current change (%, negative = inhibition) at 10uM” value is recorded as 9.04%.
To `COc1cccc(OC)c1C(=O)NC(=S)N1C[C@H]2C[C@H](C1)c1cccc(=O)n1C2` belongs 2.4%; to `Cc1ccc(CN2CCN(/N=C/c3ccc(C(F)(F)F)cc3)CC2)c(C)c1`, -4.93%.
`COc1ccc(-c2nc(CS(=O)(=O)CC(=O)NC3CCCCCC3)c(C)o2)cc1`: the “hERG current change (%, negative = inhibition) at 10uM” value turned out to be 11.7%.
Regarding `CN1CCCN(C(=O)c2cccc(Cl)c2)CC1`, the “hERG current change (%, negative = inhibition) at 10uM” value amounted to 0.367%.
As to `O=S(=O)(Nc1ccc(Cl)cn1)c1cccs1`, the “hERG current change (%, negative = inhibition) at 10uM” value came out at 13.2%.
Take `Cc1ccccc1NC(=S)N(C)CCc1ccccn1`: the “hERG current change (%, negative = inhibition) at 10uM” value was determined as 8.57%.
`O=C(NCc1ccco1)c1cc(-c2cccnc2)nc2ccc(Cl)cc12`: the “hERG current change (%, negative = inhibition) at 10uM” value is -36.3%.
As for `O=C(Nc1cccc2ccccc12)c1cc2c(cc1Br)OCO2`, the figure is -23.4%; as for `CCN1CCN(c2cc3c(nn2)Oc2ccccc2N3C)CC1`, -41.1%.
For `CCC(=O)Nc1cccc(NC(=S)NC(=O)c2cccc(C)c2)c1`, the “hERG current change (%, negative = inhibition) at 10uM” value is recorded as -8.02%.
With `COc1ccc(C(=O)OCC(=O)NC2CC2)cc1[N+](=O)[O-]`, the “hERG current change (%, negative = inhibition) at 10uM” value is 15.8%.
On to `O=C(COC(=O)c1ccccc1OC(F)F)Nc1ccc(N2CCCCC2)cc1`, for which the “hERG current change (%, negative = inhibition) at 10uM” value is 9.25%.
For `COc1cccc(NC(=O)CN(C)C(=O)c2sc3cc(Cl)ccc3c2Cl)c1`, the “hERG current change (%, negative = inhibition) at 10uM” value is -18.5%.
For `CC1(C)CC[C@]2(C)CC[C@]3(C)C4C[C@@H]5OO[C@@]6(O5)C(CCCC6(C)C)[C@]4(C)CC[C@@]3(C)C2C1` (some centres unmarked), the “hERG current change (%, negative = inhibition) at 10uM” value is 8.78%.
To `Cc1cc(NC(=O)c2cc(S(=O)(=O)N3CCCCC3)ccc2C)n(-c2ccccn2)n1` belongs -4.7%; to `CCN(CC)c1ccc(-c2nc3cnccc3n2C)cc1`, -25.9%; to `CCNC(=S)NNC(=O)c1ccccc1Cl`, 4.98%.
With `COc1ccccc1N1CCN(C(=O)COc2cc(C)ccc2C)CC1`, the “hERG current change (%, negative = inhibition) at 10uM” value is -18.3%.
Take `CCOC(=O)c1nc(Nc2ccc(C(=O)OC)cc2)c2ccccc2n1`: the “hERG current change (%, negative = inhibition) at 10uM” value is recorded as 0.323%.
As for `CCn1c(/C=C2/C(=O)N(C)c3ccccc32)nc2ccccc2c1=O`, the figure is 6.83%; as for `CCOC(=O)c1sc2ccccc2c1OC(=O)c1ccc(C)cc1`, -12.3%.
To `C[C@H](NC(=O)c1nc[nH]c1C(=O)N[C@@H](CCCC[NH3+])C(=O)OC(C)(C)C)C(=O)OC(C)(C)C.[Cl-]` belongs 9.19%; to `COc1ccc(CCNS(=O)(=O)c2cn(C)nc2C)cc1OC`, 19.9%; to `O=C(CSc1nc(-c2ccc(F)cc2)cs1)N1CCc2ccccc21`, -1.23%.
As to `COC(=O)C1(C(F)(F)F)N=C(N(C)C)OC(N(C)C)=N1`, the “hERG current change (%, negative = inhibition) at 10uM” value worked out at 2.85%.
In the case of `O=C(COC(=O)c1c[nH]c(=O)[nH]c1=O)NCc1ccccc1`, the “hERG current change (%, negative = inhibition) at 10uM” value is -12.2%.
To `CCn1c(SC(C)C(=O)NCC2CCCO2)nc2scc(-c3ccccc3)c2c1=O` (centres unmarked) belongs -28.7%; to `CCC(C)NC(=O)[C@@H]1CCCN1C(=O)C1CCN(S(=O)(=O)c2ccc(C)cc2)CC1` (some centres unmarked), 18.1%; to `COc1ccc(S(=O)(=O)N(C)c2ccc(OC(=O)C(C)Oc3ccc(F)cc3)cc2)cc1` (centres unmarked), -14.5%.
For the compound `CC1C2CC(CC1(C)C)N(C(=O)Nc1ccc3nccnc3c1)C2` (centres unmarked), the “hERG current change (%, negative = inhibition) at 10uM” value was found to be 3.06%.
For the compound `CS(=O)(=O)N(Cc1ccco1)CC(O)Cn1c2ccccc2c2ccccc21` (centres unmarked), the “hERG current change (%, negative = inhibition) at 10uM” value amounted to 4.1%.
To `CCc1ccccc1NC(=O)c1ccc(Cn2cc([N+](=O)[O-])cn2)cc1` belongs -29.6%; to `CCOC(=O)N1C2=NC(C(=O)OC)=C(C(=O)OC)[C@@H]3N(C)c4ccccc4[C@]23C[C@H]1C(=O)OC`, 0.337%; to `CC1CCCCN1C(=O)COC(=O)C1CCN(S(=O)(=O)c2ccc3c(c2)OCCO3)CC1` (centres unmarked), 10.5%.
As for `CN(CC(=O)N1CCCCCC1)S(=O)(=O)c1cccc2cccnc12`, the figure is -9.23%; as for `O=C(CSc1nc2cc(Cl)ccc2o1)N1CCOCC1`, -5.79%.
Turning to `COc1cccc(CN2CC(C(=O)NCCCn3cccn3)CCC2=O)c1` (centres unmarked), the “hERG current change (%, negative = inhibition) at 10uM” value came out at 6.69%.
`COCC(=O)Nc1ccc(C)c(Cl)c1`: the “hERG current change (%, negative = inhibition) at 10uM” value is 14.4%.
For `CCc1cc(=O)oc2c3c(cc(OCC(=O)Nc4cccnc4)c12)OC(C)(C)CC3`, the “hERG current change (%, negative = inhibition) at 10uM” value came to 14%.
Regarding `COc1cc(OC)cc(C(=O)NCC(=O)OCC(=O)c2cc(OC)ccc2OC)c1`, the “hERG current change (%, negative = inhibition) at 10uM” value is 2.7%.
For `COc1ccc(C2CC3(O)NC(=O)C(C#N)(C3C)C2(C#N)C#N)cc1` (centres unmarked), the “hERG current change (%, negative = inhibition) at 10uM” value is listed as 8.56%.
Turning to `O=C(NCc1ccco1)c1cccc(NS(=O)(=O)c2cccc(F)c2)c1`, the “hERG current change (%, negative = inhibition) at 10uM” value is listed as -9.1%.
Take `CC(=O)c1ccc(CC2SC(N)=NC2=O)cc1` (centres unmarked): the “hERG current change (%, negative = inhibition) at 10uM” value is listed as -2.15%.
To `O=C(CCS(=O)(=O)c1ccc(Br)cc1)NCCc1ccc(Cl)cc1` belongs 1.65%; to `COc1ccc2oc(C(=O)OC(C)C(=O)Nc3ccc(N4CCOCC4)cc3)c(C)c2c1` (centres unmarked), -0.65%.
With `CCC(C(=O)NC1CCCC1)N(Cc1ccccc1Cl)C(=O)c1snc(C(N)=O)c1N` (centres unmarked), the “hERG current change (%, negative = inhibition) at 10uM” value is -14.6%.
To `CC1CCc2c(sc(N)c2C(=O)OC(C)C)C1` (centres unmarked) belongs -6.65%.
To `CC1CCCN(C(=O)CSc2nnc3ccccn23)C1` (centres unmarked) belongs 4.63%; to `CC(=O)Nc1nc(SCC(=O)Nc2nnc(C)s2)[nH]c(=O)c1NC(=O)c1cccs1`, 5.63%; to `O=C(CN1C(=O)NC(c2ccccc2)(c2ccccc2)C1=O)c1c[nH]c2ccccc12`, 6.51%.
For the compound `CCc1ccc2oc(=O)cc(CN3CCCCC3)c2c1`, the “hERG current change (%, negative = inhibition) at 10uM” value amounted to 2.85%.
With `CCCCOCCCNCC(=O)Nc1ccc(S(N)(=O)=O)cc1`, the “hERG current change (%, negative = inhibition) at 10uM” value is listed as -2.34%.
For `O=C(N/N=C/c1ccc([N+](=O)[O-])cc1)c1cc(C2CC2)nc2ccccc12`, the “hERG current change (%, negative = inhibition) at 10uM” value was 6.45%.
As for `CCNc1oc(COc2cccc(C)c2)nc1C#N`, the figure is -12.2%.
Take `Cn1ccc(NS(=O)(=O)c2cc(Br)ccc2Br)n1`: the “hERG current change (%, negative = inhibition) at 10uM” value was 0.158%.
With `CCOC(=O)c1cc(=O)c2ccc(OCc3ccccc3)cc2o1`, the “hERG current change (%, negative = inhibition) at 10uM” value stood at 9.77%.
Consider `CCN(CC)S(=O)(=O)c1ccc(NC(=O)CN(c2cccc(C)c2)S(C)(=O)=O)cc1`, for which the “hERG current change (%, negative = inhibition) at 10uM” value is recorded as -6.52%.
In the case of `CS(=O)(=O)N1CCN(c2ccc([N+](=O)[O-])c(N3CCOCC3)c2)CC1`, the “hERG current change (%, negative = inhibition) at 10uM” value came out at 2.27%.
`O=S(=O)(NCC1CCCO1)c1cc(Cl)ccc1Br` (centres unmarked): the “hERG current change (%, negative = inhibition) at 10uM” value is listed as -10.1%.
`Cc1cccc(C(=O)OCc2cnc(Cl)s2)c1`: the “hERG current change (%, negative = inhibition) at 10uM” value is -8.04%.
As for `CC(C)(CNC(=O)CO/N=C1/C=C2CCC3C(C(O)C[C@@]4(C)C3CC[C@]4(O)C(=O)CO)[C@@]2(C)CC1)C(O)C(=O)O` (some centres unmarked), the “hERG current change (%, negative = inhibition) at 10uM” value worked out at 11.3%.
For `COc1cc2c(cc1NC(=O)CN1CCN(S(=O)(=O)c3ccccc3F)CC1)oc1ccccc12`, the “hERG current change (%, negative = inhibition) at 10uM” value stood at 10.1%.
Take `CSc1cc(-c2ccc(Cl)cc2)c(C(=O)NC(C)C)s1`: the “hERG current change (%, negative = inhibition) at 10uM” value is given as 1.07%.
Regarding `Cc1c(C(C)(C(=O)O)c2c(C)n(C)c3ccccc23)c2ccccc2n1C`, the “hERG current change (%, negative = inhibition) at 10uM” value is on record as 3.83%.
On to `O=C(O)CC1S/C(=N/N=C/c2ccc(-c3ccc(Cl)c([N+](=O)[O-])c3)o2)NC1=O` (centres unmarked), for which the “hERG current change (%, negative = inhibition) at 10uM” value was found to be 31.2%.
On to `O=C(COc1ccccc1)NCc1nnc2c3ccccc3c(-c3ccccc3)nn12`, for which the “hERG current change (%, negative = inhibition) at 10uM” value is reported as -64.6%.
As for `CN(Cc1ccccc1)C(=O)c1cccc(N2C(=O)NC3CC2(C)Oc2ccccc23)c1` (centres unmarked), the “hERG current change (%, negative = inhibition) at 10uM” value is on record as -7.89%.
Consider `COC(=O)c1ccccc1NC(=O)CN1C(=O)CSC1=O`, for which the “hERG current change (%, negative = inhibition) at 10uM” value is -10.4%.
In the case of `CCOc1cc2sc(N3CCC(C(=O)NCCCN4CCCC4=O)CC3)nc2cc1Br`, the “hERG current change (%, negative = inhibition) at 10uM” value is given as -60.5%.
As for `CC1=C(C(=O)OC2CCCCC2)C(c2ccco2)C2=C(CC(C)(C)CC2=O)N1` (centres unmarked), the figure is -9.3%.
On to `COc1ccc(-c2cccc(C3CC=CC4C3C(=O)N(Cc3ccccc3)C4c3ccc(OC)c(Cl)c3)c2)cc1` (centres unmarked), for which the “hERG current change (%, negative = inhibition) at 10uM” value is listed as 22.7%.
On to `O=C(CSc1c(Cl)cccc1Cl)N1CCC(c2nc3ccccc3s2)CC1`, for which the “hERG current change (%, negative = inhibition) at 10uM” value is on record as -0.729%.
On to `O=C(Cn1c2ccccc2c(=O)c2ccccc21)Nc1ccccc1F`, for which the “hERG current change (%, negative = inhibition) at 10uM” value is 1.59%.
As to `C=C1CCN([C@@H](Cc2ccccc2)C(=O)N2CCOCC2)S(=O)(=O)c2ccccc21`, the “hERG current change (%, negative = inhibition) at 10uM” value is -8.16%.
On to `O=C(c1ccco1)N1CCN(Cc2ccc(F)cc2Cl)CC1`, for which the “hERG current change (%, negative = inhibition) at 10uM” value is on record as -16.4%.
Take `COc1cccc(NC(=O)CNC(=O)c2ccc(C)cc2)c1`: the “hERG current change (%, negative = inhibition) at 10uM” value turned out to be 17.2%.
For the compound `O=C(O)C1CC=C(Cl)CC1C(=O)NCc1ccccc1` (centres unmarked), the “hERG current change (%, negative = inhibition) at 10uM” value worked out at 6.61%.
`COc1cccc(CNC(=O)C2CCN(S(=O)(=O)c3c(C)nn(C)c3C)CC2)c1`: the “hERG current change (%, negative = inhibition) at 10uM” value is on record as -0.0381%.
To `Cc1cccc(NC(=S)NNC(=O)c2csc3c2CCCC3)c1` belongs 19.3%; to `O=C1CC(=O)Nc2cc(S(=O)(=O)N3CCOc4ccccc43)ccc2N1`, 24.8%.
Regarding `Oc1ccc(Nc2nc(-c3cccnc3)cs2)cc1`, the “hERG current change (%, negative = inhibition) at 10uM” value came out at 13.7%.
Consider `Cc1ccc(S(=O)(=O)N2CCN(c3cccc(C)c3)CC2)cc1`, for which the “hERG current change (%, negative = inhibition) at 10uM” value is given as 14.4%.
In the case of `C[C@@H](C(=O)CC(=O)OC(C)(C)C)[C@@H](O)c1ccccc1`, the “hERG current change (%, negative = inhibition) at 10uM” value stood at 27.5%.
As to `COc1ccc(N2CCN(CCOc3ccc4c(C)cc(=O)oc4c3)CC2)cc1`, the “hERG current change (%, negative = inhibition) at 10uM” value is recorded as -26.1%.
